This data set concerns the molecule itself. The data set is described as follows: SEC; final gel filtration step, HiLoad 16/600 Superdex 200 in 20 mM CHES, 100 nM ZnCl2, 1 mM TCEP, pH 10.0, 4°C; oligomer judged from retention time. For orientation: Size exclusion chromatography separates by hydrodynamic size, large species first.

B1: human TRIM5α (Homo sapiens) (natural protein)
chain: not shown
notes: also called TRIM5αhu; wild type TRIM5αhu
The term stoichiometry N denotes the number of molecules, sites or subunits per partner or assembly. Consider B1, for which the “stoichiometry N” value was 2.

Values taken from article PMC4936896, “Primate TRIM5 proteins form hexagonal nets on HIV-1 capsids” (eLife, 2016).
